# ± gives the standard deviation of the averaged measurements. This is one part of the list.
# Tested on: PfAP2-I AP2 domain 3 (GST-tagged)
# Assay: gcPBM binding intensity (ln(normalized median fluorescence intensity)); higher = stronger DNA binding
# Method in brief: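 An Agilent 4 × 180k array of primer-extended double-stranded 36-bp intergenic genomic probes, with negative controls, was incubated for 1 h with GST-tagged P. falciparum DNA-binding domains expressed in E. coli. Alexa488 anti-GST antibody detected bound protein, scanned at 488 nm. Binding intensity is the highest Masliner-normalised natural-log median intensity across replicate spots of either probe orientation.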
row,Sequence,gcPBM binding intensity (ln)
1,TTTAAAATAAATTAATAGAACAAAAATAAAATGATT [GTGCAC_negctrl_site375],7.78 ± 0.67
2,AAAAAAAATACAAAAAGTACAAAAAATACAAAAAAA [XGTACX_site8844],7.68 ± 0.56
3,TTTGAGTTACTATTCACACAAAATGGATAAATTAAT [CACACA_site5626],7.64 ± 0.52
4,CACATAAATAATTAAACACACATTGTTCTAGACAAT [CACACA_site2378],7.52 ± 0.48
5,TAGTTTTGAAAACAAACACACAAAAAAAAAAAAAAA [CACACA_site1692],8.05 ± 0.9
6,TACATATTACTATTCAGTACATATTTTTTTTTCATT [XGTACX_site7468],7.59 ± 0.53
7,TATATAGGTATATATACACACAACGGTTATAAATAT [CACACA_site4759],7.84 ± 0.6
8,TATAAAGACACGAAAACACACATATGTAAATATATA [CACACA_site8056],7.91 ± 0.65
9,AATATAAAAAATAATACACACACATGGCGACAAAAT [CACACA_site8765],8.39 ± 0.5
10,ATGTAAGTAATTATCTGTACACATAATATATATATA [XGTACX_site2618],8.98 ± 0.13
11,TTCTGTCAATATGCTTGTACGAAATATTTCGTAATT [XGTACX_site3182],8.04 ± 0.4
12,AAAATAAACCCAGACACACTCATTAAAAAATATCAT [CACACA_site5903],7.65 ± 0.54
13,TATTAATCCTTTTGCTTGGAAACATTCAAAAGGAAG [CACACA_negctrl_site1129],7.36 ± 0.47
14,ATAAATAAATACTAGGCACACACACCGATATATATA [CACACA_site8649],8.32 ± 0.85
15,ATATATATAAAATATGGTACAGAAAAAGTCTTGTTT [XGTACX_site8868],8.2 ± 0.73
16,AATCCTTAAAATTAACGTACGAAATGAATTTATTAA [XGTACX_site956],7.67 ± 0.41
17,TGGAGGTCATTACACAGTACCCAGGAAATCTACGGA [XGTACX_site2004],7.76 ± 0.61
18,AAACCGTGGGAGCACACACACACACCCACCCATATA [CACACA_site332],8.35 ± 0.53
19,ATAATAACAAAATATTAACACACATAACATATTATA [CACACA_site8906],7.53 ± 0.57

row,Sequence,gcPBM binding intensity (ln)
1,ACAAAACAAAACAAAAGTACACAAAATAAATAAGAT [XGTACX_site6497],8.04 ± 0.7
2,TTAAATAATGCCACCAGTACCCACTGAAAGAAAAAA [XGTACX_site5013],8.855 ± 0.078
3,CAATTGATATTGAAATGTACTTTTTAGATGAACCTT [XGTACX_site2354],7.46 ± 0.44
4,TATATTAAAATTTACTGTACTTTTTTTATTTTAAAA [XGTACX_site4077],7.8 ± 0.17
5,AAAGATATAAATTACTGTACTAATGAAATTGGTAAA [XGTACX_site3582],7.67 ± 0.28
6,ATATTAAAATTTTAATGTACATGCGTATGTAGGAAT [XGTACX_site1673],8.48 ± 0.38
7,TATATTATATTTTTATGTACTTATTTATTTTGTTTC [XGTACX_site6145],7.81 ± 0.49
8,AACATATATTTTTAATGTACAAGGTTGTAAAGAACT [XGTACX_site1405],8.03 ± 0.45
9,ATGTATATATTCAATTGTACATGTTATATTTACACA [XGTACX_site1125],7.76 ± 0.33
10,ATTGTATTAAAATGCACACATATCAAGAGGAATTTT [CACACA_site283],9.095 ± 0.064
11,TGTAAAATATAAAAAGTGCATTTCTTTTAATATGAT,9.96 ± 0.19
12,AAAGAATAATTAAATACACACATATTGCAGTAAAAA [CACACA_site7201],8.99 ± 0.28
13,AATATAATATAATGCACACATAAACAAAAAAAAAAT [CACACA_site1304],10.9 ± 0.96
14,TTCATTTGAAAACTGTGTACTTAAAAATATACATAT [XGTACX_site176],7.82 ± 0.29
15,ATATATTTAAATAAATGTACAAATCATAAATTCAAG [XGTACX_site1417],7.63 ± 0.44
16,TTATTAGAAAAATGCACACCAAAAAAAAAAAAAAAA [CACACA_site2522],8.89 ± 0.25
17,ATACATATACACATATGTACATATGAAAAGAAAAAT [XGTACX_site6445],8.06 ± 0.76
18,TTTTTATTTTATAATATATTCCTTTTCCTTTCTTTC [CACACA_negctrl_site245],7.35 ± 0.79
19,TACATATATATAAATACACACACACCCACCTTATAA [CACACA_site9346],8.34 ± 0.16

row,Sequence,gcPBM binding intensity (ln)
1,TATATATATTGTGTATGTACATATATATAAATATTG [XGTACX_site433],8.2 ± 0.57
2,ATATACATATATATATGTACTGAAAAGAAAAGAATT [XGTACX_site150],7.82 ± 0.57
3,CATAAATACATACATACACACATATTTATATTTATA [CACACA_site7071],7.84 ± 0.54
4,ATAATTATATATATATGTACATATTATATATATATA [XGTACX_site4526],8.955 ± 0.049
5,TGTTTTTAAATTTAAATCAAAAAATAAAATAAAATA [GTGCAC_negctrl_site355],7.66 ± 0.54
6,AAGATAACAAGTAATCAATCTAATTATTAATTATAT [CACACA_negctrl_site1713],7.12 ± 0.6
7,AAAAATATGTGATAATGTACTTTTCATTTTTATTTT [XGTACX_site8544],7.49 ± 0.45
8,TATAAAAAGCATAACACACACATGTCAATATAAATA [CACACA_site6648],7.84 ± 0.52
9,TATTGAAACCCACACGAACACACGTATTTCATAAAC [CACACA_site251],7.77 ± 0.67
10,ATGGACATTTTATAAATCACAATGGATATTTTATAA [CACACA_negctrl_site1830],7.5 ± 0.5
11,TACTTTTATATAGAAAGTACATACAATTCATAGAAT [XGTACX_site2182],7.62 ± 0.54
12,TTTTTTTTTTTTTTGTGTACATATAATGCACATTAT [XGTACX_site6505],11.1 ± 0.93
13,TATACTCATTTTTATACACACTTGTTTTATAAAACG [CACACA_site4561],7.92 ± 0.67
14,ATATATATATATATATGTACATATGTATGTGTTTGT [XGTACX_site397],9.28 ± 0.38
15,CTATATGTATAAAGTTGTACAGTTTTTCAAAGTTAA [XGTACX_site6652],7.91 ± 0.22
16,AAATTTATTATGAACATACACACAAAAAAAAAAAGT [CACACA_site2053],8.2 ± 0.52
17,TACATCATCTATAAGGTGCATTTTAGTTCTATTAAA,10.3 ± 0.58
18,TATATATTTTATTATTGTACGAATTATTTATTTTAC [XGTACX_site8105],7.6 ± 0.42
19,TTTTTTCTAATATCTTTGCCTTTTTCTTTATTTATT [CACACA_negctrl_site1053],7.65 ± 0.82
